Test results reported in the supplement of paper PMC8728848.
The other results are listed elsewhere or left out.

Columns and labels:
Assay in all cases: glycan array binding signal (z-score within array); higher = stronger binding
Conditions in all cases: glycan notation: IUPAC condensed, linker removed
[1] = target: GlcNAc(a1-4)Gal(b1-3)GlcNAc
Method in brief: (§1)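 Glycan array data were curated from 3228 arrays in the Consortium for Functional Glycomics database and kept only where the protein sequence was available. Glycan names were converted to IUPAC-condensed notation, and columns mapping to the same glycan were averaged. The binding signal is a within-array Z-score, averaged across arrays of the same protein sequence at different concentrations or buffers and across linkers. Negative Z-scores can be read as non-binding.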

[2] = target: GlcNAc(a1-4)Gal(b1-4)GalNAc
Method in brief: as §1

[3] = target: GlcNAc(a1-4)Gal(b1-4)GlcNAc
Method in brief: as §1

[4] = target: GlcNAc(a1-4)Gal(b1-4)GlcNAc(b1-3)Gal(b1-4)Glc
Method in brief: as §1

[5] = target: GlcNAc(a1-4)Gal(b1-4)GlcNAc(b1-3)Gal(b1-4)GlcNAc
Method in brief: as §1

[6] = target: GlcNAc(a1-4)Gal(b1-4)GlcNAc(b1-3)Gal(b1-4)GlcNAc(b1-3)Gal(b1-4)GlcNAc
Method in brief: as §1

[7] = target: GlcNAc(a1-4)Gal(b1-4)GlcNAc(b1-3)Gal(b1-4)[Fuc(a1-3)]GlcNAc(b1-3)Gal(b1-4)[Fuc(a1-3)]GlcNAc
Method in brief: as §1

[8] = target: GlcNAc(a1-6)Gal(b1-4)GlcNAc
Method in brief: as §1

[9] = target: GlcNAc(b1-2)Gal(b1-3)GalNAc
Method in brief: as §1

[10] = target: GlcNAc(b1-2)Man(a1-3)[GlcNAc(b1-2)Man(a1-6)]Man(b1-4)GlcNAc(b1-4)GlcNAc
Method in brief: as §1

[11] = target: GlcNAc(b1-2)Man(a1-3)[GlcNAc(b1-2)Man(a1-6)]Man(b1-4)GlcNAc(b1-4)[Fuc(a1-6)]GlcNAc
Method in brief: as §1

[12] = target: GlcNAc(b1-2)Man(a1-3)[GlcNAc(b1-4)][GlcNAc(b1-2)Man(a1-6)]Man(b1-4)GlcNAc(b1-4)GlcNAc
Method in brief: as §1

[13] = target: GlcNAc(b1-2)Man(a1-3)[GlcNAc(b1-4)][GlcNAc(b1-2)Man(a1-6)]Man(b1-4)GlcNAc(b1-4)[Fuc(a1-6)]GlcNAc
Method in brief: as §1

[14] = target: GlcNAc(b1-2)[GlcNAc(b1-4)]Man(a1-3)[GlcNAc(b1-2)Man(a1-6)]Man(b1-4)GlcNAc(b1-4)GlcNAc
Method in brief: as §1

[15] = target: GlcNAc(b1-2)[GlcNAc(b1-4)]Man(a1-3)[GlcNAc(b1-4)][GlcNAc(b1-2)Man(a1-6)]Man(b1-4)GlcNAc(b1-4)GlcNAc
Method in brief: as §1

[16] = target: GlcNAc(b1-2)[GlcNAc(b1-4)]Man(a1-3)[GlcNAc(b1-4)][GlcNAc(b1-2)[GlcNAc(b1-6)]Man(a1-6)]Man(b1-4)GlcNAc(b1-4)GlcNAc
Method in brief: as §1

[17] = target: GlcNAc(b1-2)[GlcNAc(b1-4)]Man(a1-3)[GlcNAc(b1-4)][GlcNAc(b1-2)[GlcNAc(b1-6)]Man(a1-6)]Man(b1-4)GlcNAc(b1-4)[Fuc(a1-6)]GlcNAc
Method in brief: as §1

[18] = target: GlcNAc(b1-2)[GlcNAc(b1-6)]Man(a1-6)[GlcNAc(b1-2)Man(a1-3)]Man(b1-4)GlcNAc(b1-4)GlcNAc
Method in brief: as §1

[19] = target: GlcNAc(b1-2)[GlcNAc(b1-6)]Man(a1-6)[GlcNAc(b1-2)Man(a1-3)]Man(b1-4)GlcNAc(b1-4)[Fuc(a1-6)]GlcNAc
Method in brief: as §1

B1: mCC1-Hexahis-Precomplexed (Mus musculus), P31809 (protein)
chain: MELASAHLHKGQVPWGGLLLTASLLASWSPATTAEVTIEAVPPQVAEDNNVLLLVHNLPLALGAFAWYKGNTTAIDKEIARFVPNSNMNFTGQAYSGREIIYSNGSLLFQMITMKDMGVYTLDMTDENYRRTQATVRFHVHPILLKPNITSNNSNPVEGDDSVSLTCDSYTDPDNINYLWSRNGESLSEGDRLKLSEGNRTLTLLNVTRNDTGPYVCETRNPVSVNRSDPFSLNIIYGPDTPIISPSDIYLHPGSNLNLSCHAASNPPAQYFWLINEKPHASSQELFIPNITTNNSGTYTCFVNNSVTGLSRTTVKNITVLEPVTQPFLQVTNTTVKELDSVTLTCLSNDIGANIQWLFNSQSLQLTERMTLSQNNSILRIDPIKREDAGEYQCEISNPVSVRRSNSIKLDIIFDPTQGGLSDGHHHHHH
- glycan array binding signal (z-score) [1]: -0.139
- glycan array binding signal (z-score) [2]: -0.219
- glycan array binding signal (z-score) [3]: -0.091
- glycan array binding signal (z-score) [4]: -0.173
- glycan array binding signal (z-score) [5]: -0.231
- glycan array binding signal (z-score) [6]: -0.225
- glycan array binding signal (z-score) [7]: -0.119
- glycan array binding signal (z-score) [8]: -0.279
- glycan array binding signal (z-score) [9]: -0.283
- glycan array binding signal (z-score) [10]: -0.166
- glycan array binding signal (z-score) [11]: -0.046
- glycan array binding signal (z-score) [12]: -0.285
- glycan array binding signal (z-score) [13]: -0.266
- glycan array binding signal (z-score) [14]: -0.16
- glycan array binding signal (z-score) [15]: -0.219
- glycan array binding signal (z-score) [16]: -0.254
- glycan array binding signal (z-score) [17]: -0.051
- glycan array binding signal (z-score) [18]: -0.249
- glycan array binding signal (z-score) [19]: -0.27
